Laboratory results published in PubChem BioAssay (NCI).
“And” between values parts separate entries of the source, which are not always exact repeats. Identical values can stand only once.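 Exposure lasted 48 hours, with cells grown in 96-well plates and compounds tested at five concentrations. GI50 marks 50% less growth. At the TGI there is no net growth.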

Tested on: NCI-H322M lung
Test: NCI anticancer screen, dose series, 48 h

Structure (SMILES)	TGI	GI50
CCOc1ccc(NC(=O)CC2C(=O)Nc3ccccc3S2(=O)=O)cc1 (stereo not given)	> 100 µM	–
c1ccc2c(c1)cc1n2CC2CN=NC12 (stereo not given)	> 100 µM	–
CN(C)c1cc[n+](-c2nc(/N=C(\[O-])C(F)(F)F)nc3c2ncn3C2CC(O)C(CO)O2)cc1 (stereo not given)	> 100 µM	–
COc1ccc2oc(=O)c(-c3csc(C)n3)cc2c1	> 100 µM	–
O=[N+]([O-])c1cccc(C2CC(c3ccccc3)=Nc3ccccc3S2)c1 (stereo not given)	> 100 µM	34.8 µM
COc1ccc(C(C2=C(O)COC2=O)c2cc3c(cc2O)OCO3)cc1OC (stereo not given)	> 100 µM	–
CN1CCN(CCCOc2cccc3nc(Nc4ccc(Cl)c(C(F)(F)F)c4)ccc23)CC1	2.86 µM	1.44 µM
Fc1cccc(F)c1C1SCc2nc3ccc(Cl)cc3n21 (stereo not given)	> 100 µM	–
NC(=S)c1c(N)n(C2OC(CO)C(O)C2O)c2ncnc(N)c12 (stereo not given)	–	0.331 µM
Cc1ccccc1NC(=O)Cc1csc2[n+]1C(=O)/C(=C/c1ccc([N+](=O)[O-])cc1)S2	> 100 µM	–
CC(C)C1N(C)c2ccc(Cl)cc2[C@H]2c3ccccc3CCN12 (stereo not given in full)	> 100 µM	–
CCOC(=O)Cc1nc2c(N)ncnc2n1C1OC(COC(C)=O)C(OC(C)=O)C1OC(C)=O (stereo not given)	> 100 µM	–
Cc1cc(=O)[nH]c(NN2C(Cl)C(=O)C2c2cccc(Cl)c2)n1 (stereo not given)	> 100 µM	–
COC(=O)[C@H]1CCCN1C(=O)[C@H]1CCCN1C(=O)[C@H](Cc1c[nH]c2ccccc12)NC(=S)Nc1cc(C(F)(F)F)cc(C(F)(F)F)c1	> 100 µM	34.7 µM
COc1cc(C2c3cc4c(cc3OC(N3CCNCC3)C2C)OCO4)cc(OC)c1OC (stereo not given)	> 100 µM	–
CCN1CCN(C(=O)[C@]23CCC(C)(C)C[C@@H]2C2=CC[C@@H]4[C@@]5(C)C/C(=C/c6ccncc6)C(=O)C(C)(C)[C@@H]5CC[C@@]4(C)[C@]2(C)CC3)CC1	3.02 µM	1.62 µM
COC(=O)c1ccc(NC(=O)Oc2ccc(N(CCCl)CCCl)cc2)cc1	> 100 µM	55.6 µM
CCN(CC)Cc1cc2[nH]c3c4ccc(Cl)cc4ncc3c2cc1OC	27.5 µM and 11.7 µM	14.2 µM and 3.14 µM
O=C(CCc1ccccc1)On1c(-c2ccccc2)nc2ccccc2c1=S	> 100 µM	–
C=CCOCn1cc(C)c(=O)[nH]c1=O	> 100 µM	–
Nc1c(Cl)ncnc1NCCCNc1ncnc(Cl)c1N	> 100 µM	–
COc1cc(CCc2ccc(N)cc2)cc(OC)c1OC	> 100 µM	–
COc1cc(-c2ccccc2N)c2cccnc2c1OC	20.9 µM	–
Cn1c(-c2c(N)n(CCCN3CCOCC3)c3nc(C#N)c(C#N)nc23)nc2ccccc21	> 100 µM	> 53.6 µM

Structure (SMILES)	TGI	GI50
CCc1nc(N)nc(N)c1-c1ccc(N2CCNCC2)cc1	> 100 µM	–
COc1cc2cc(Oc3ccc(NC(=O)Nc4ccc(Cl)c(Cl)c4)cc3)c(C)nc2cc1OC	60.3 µM	8.66 µM
CC(C)(C)C(C#N)(C#N)c1ccc(C(C#N)(C#N)C(C)(C)C)nn1	> 100 µM	–
Cc1cc(Cl)nc(N(CCCNc2ccnc3cc(Cl)ccc23)Cc2ccco2)n1	11.3 µM	2.63 µM
CC(=O)N(O)c1ccc(-c2nc3ccccc3s2)cc1	> 100 µM	–
C[C@]12CCC3[C@@H](CC[C@@H]4c5nonc5CC[C@]34C)C1CC[C@@H]2O (stereo not given in full)	> 100 µM	–
COC(=O)c1ccc(Nc2nc3nc[nH]c3c(=O)[nH]2)cc1	> 100 µM	–
CC1=NC(=Cc2ccc([N+](=O)[O-])cc2)C(=O)N1n1c(-c2ccccc2)nc2ccccc2c1=O	> 100 µM	–
CCc1nc2ccc(NCCN(C)C)c3c(=O)c4ccccc4n1c23	4.75 µM	–
c1ccc2c3c([nH]c2c1)C(c1ccc(C2NCCc4c2[nH]c2ccccc42)cc1)NCC3 (stereo not given)	2.66 µM	1.25 µM
CCN(CC)c1ccc2cc(C(=O)Nc3ccccn3)c(=N)oc2c1	> 100 µM	–
CCSc1c2ccccc2c(-c2nc(F)nc(F)n2)n1CCc1ccccc1	> 100 µM	–
COc1ccc(/C=C/C2=NN(c3cccc(S(=O)(=O)O)c3)C3(C2)SCC(=O)N3c2nc3ccccc3s2)cc1 (stereo not given)	> 100 µM	–
O=C1Cc2cc(C(=O)NC3C[C@H]4CC[C@@H](C3)N4S(=O)(=O)CC3CCN(CCCC(F)(F)F)CC3)c(Cl)cc2N1 (stereo not given in full)	> 100 µM	> 100 µM
O=P(O)(O)C1(P(=O)(O)O)CC1	> 100 µM	–
C[Si](C)(c1ccccc1)[C@H]1CCCC=C1CCNC1c2ccccc2CCc2ccccc21	> 100 µM	–
COC(=O)C=Cc1ccc2nncnc2c1 (mixture of isomers)	> 100 µM	–
O=C(Nc1ccccc1)c1cc(S(=O)(=O)N2CCNNC2=O)c(S)cc1Cl	> 100 µM	–
O=c1[nH]cnc2c1nnn2CCCCCCCCCCCCn1nnc2c(=O)[nH]cnc21	> 100 µM	–
C[C@H]1S[C@H](c2c(Cl)cccc2Cl)N2Cc3ccccc3N=C12	27.1 µM	–
Clc1ccc(OCc2nn3c(CCc4nnc5sc(COc6ccc(Cl)cc6)nn45)nnc3s2)cc1	> 100 µM	–
CCn1c(SCC(=O)NNC(=S)NC)nc2ccccc2c1=O	> 100 µM	–
CCOC(=O)Oc1ccc2c(c1)c(=O)c1c(NCCN(CC)CC)ccc3nnn2c31	15.9 µM	–
O=C1/C=C/[C@@H](O)[C@@H]2C[C@@H](O)C[C@H]2/C=C/CCC[C@H](C(F)(F)F)O1	> 87.9 µM	18.9 µM

Structure (SMILES)	TGI	GI50
C=C1C(=O)OC2/C=C(/C)C(OC(C)=O)C/C=C(\C)C(OC(=O)C3(C)OC3C)C(O)C12 (stereo not given)	> 100 µM	–
O=C1c2ccccc2C(=O)c2c(OCCOCCO)cccc21	> 100 µM	–
CSc1ccc2c(c1)C(N1CCN(C)CC1)Cc1ccccc1S2 (stereo not given)	20.9 µM and 8.2 µM	2.53 µM
Cn1cc(C2=C(c3cn(CCCCCSC(=N)N)c4ccccc34)C(=O)NC2=O)c2ccccc21	7.06 µM	3.61 µM
C=CCc1cc(OC)c2c(c1)C(OC)CC(c1ccc(OC)c(OC)c1)O2 (stereo not given)	> 100 µM	–
O=C(COc1cccc(/C=C2\CSc3ccccc3C2=O)c1)Nc1nccs1	25 µM	12.5 µM
CSC1NC(c2ccc(Cl)cc2)=C(C#N)C(=O)N1C1OCC(OC(C)=O)C(OC(C)=O)C1OC(C)=O (stereo not given)	> 100 µM	–
COc1cc2nc3cc([N+](=O)[O-])ccc3c(NCCNCC(C)(C)O)c2cc1OC	3.97 µM	0.731 µM
CN(C)C(=S)SCC(=O)Nc1ccccc1	> 100 µM	–
C[C@H](C/C=C/C(C)(C)O)[C@H]1CC[C@@]2(C)[C@@H]3CC[C@H]4C(C)(C)[C@@H](O)CC[C@@]45C[C@@]35CC[C@]12C	22.7 µM	–
CC[C@H](C)[C@H](NC(=O)[C@H]1CCCCN1C)C(=O)N(C)[C@H](C[C@@H](OC(C)=O)c1nc(C(=O)N[C@@H](Cc2ccccc2)C[C@H](C)C(=O)O)cs1)C(C)C	> 16.5 µM	0.000854 µM and 0.00165 µM
CCC(=O)c1c(C(F)(F)F)n([O-])c2cc(F)c(F)cc2[n+]1=O	3.2 µM	1.6 µM
CN(Cc1cnc2nc(N)nc(N)c2n1)c1ccc(C(=O)NC(CCC(=O)O)C(=O)O)cc1Br (stereo not given)	42 µM	< 0.01 µM
NNC(=O)c1cc(=O)[nH][nH]1	> 100 µM	–
Nc1ncnc2c1ncn2C1CC(OCc2ccccc2[N+](=O)[O-])C(CO)O1 (stereo not given)	> 50 µM	–
COc1ccc(N(C)c2nc(N)nc3sc4c(c23)CCCC4)cc1	20.2 µM	< 0.0132 µM
CSc1c(C(=O)Nc2ccc(Cl)cc2)c(N)n(N)c(=O)c1C#N	> 100 µM	–
C[C@@H]1S[C@H](c2c(Cl)cccc2Cl)N2Cc3ccccc3N=C12	> 100 µM	–
CC1(C)CC(=O)C2=C(C1)OC1=C(CC(C)(C)CC1=O)C2c1ccccc1[N+](=O)[O-] (stereo not given)	> 100 µM	–
O=C(Nc1nc2c(ncn2C2OC(CO)C(O)C2O)c(=O)[nH]1)c1ccccc1 (stereo not given)	> 100 µM	–
Cc1ccc2c(c1)C(=O)C(C1OC(=O)c3ccccc31)C2 (stereo not given)	> 100 µM	–
CCOC(=O)C1=C(C)N(c2ccc(OC)cc2)C2(O)C=CC(=O)C3=C(O)c4ccccc4C(=O)C312 (stereo not given)	41.4 µM	–
